# Results taken from patent US10100372B2, “Recombinant RSV reporter virus” (priority 2014, dated 2018).
# Target: T1, viral RNA-dependent RNA-polymerase (RdRp) complex (Human respiratory syncytial virus A, UniProt P28887)
# T1 construct: expressed in transfected cells; host or cells: Huh-7 cells
# Type: cell-based
# Experimental: Based on a previously described pT7-RSV-luciferase minigenome reporter (Dochow M, et al. (2012) J Biol Chem 287(9):6878-6891), an RSV minigenome construct was generated under the control of the constitutive RNA pol I promoter (pHH-RSV-repl-firefly). Huh-7 cells were co-transfected with this plasmid and plasmids pRSV-L, pRSV-M2-1, pRSV-N and pRSV-P, respectively, under CMV promoter control. Compounds GPAR-3710 or JMN3-003 were added in serial dilutions, luciferase reporter activities determined 40 hours post-transfection, and EC50 concentrations calculated as above if possible.
# T1 sequence (P03421 whole entry): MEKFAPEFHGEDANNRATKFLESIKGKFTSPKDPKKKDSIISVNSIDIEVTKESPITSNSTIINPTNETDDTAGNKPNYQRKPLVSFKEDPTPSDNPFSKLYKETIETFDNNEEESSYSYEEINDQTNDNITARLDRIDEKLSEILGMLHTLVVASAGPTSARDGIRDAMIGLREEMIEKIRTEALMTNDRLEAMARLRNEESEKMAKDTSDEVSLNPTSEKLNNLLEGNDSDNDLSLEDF
# T1 sequence (P28887 whole entry): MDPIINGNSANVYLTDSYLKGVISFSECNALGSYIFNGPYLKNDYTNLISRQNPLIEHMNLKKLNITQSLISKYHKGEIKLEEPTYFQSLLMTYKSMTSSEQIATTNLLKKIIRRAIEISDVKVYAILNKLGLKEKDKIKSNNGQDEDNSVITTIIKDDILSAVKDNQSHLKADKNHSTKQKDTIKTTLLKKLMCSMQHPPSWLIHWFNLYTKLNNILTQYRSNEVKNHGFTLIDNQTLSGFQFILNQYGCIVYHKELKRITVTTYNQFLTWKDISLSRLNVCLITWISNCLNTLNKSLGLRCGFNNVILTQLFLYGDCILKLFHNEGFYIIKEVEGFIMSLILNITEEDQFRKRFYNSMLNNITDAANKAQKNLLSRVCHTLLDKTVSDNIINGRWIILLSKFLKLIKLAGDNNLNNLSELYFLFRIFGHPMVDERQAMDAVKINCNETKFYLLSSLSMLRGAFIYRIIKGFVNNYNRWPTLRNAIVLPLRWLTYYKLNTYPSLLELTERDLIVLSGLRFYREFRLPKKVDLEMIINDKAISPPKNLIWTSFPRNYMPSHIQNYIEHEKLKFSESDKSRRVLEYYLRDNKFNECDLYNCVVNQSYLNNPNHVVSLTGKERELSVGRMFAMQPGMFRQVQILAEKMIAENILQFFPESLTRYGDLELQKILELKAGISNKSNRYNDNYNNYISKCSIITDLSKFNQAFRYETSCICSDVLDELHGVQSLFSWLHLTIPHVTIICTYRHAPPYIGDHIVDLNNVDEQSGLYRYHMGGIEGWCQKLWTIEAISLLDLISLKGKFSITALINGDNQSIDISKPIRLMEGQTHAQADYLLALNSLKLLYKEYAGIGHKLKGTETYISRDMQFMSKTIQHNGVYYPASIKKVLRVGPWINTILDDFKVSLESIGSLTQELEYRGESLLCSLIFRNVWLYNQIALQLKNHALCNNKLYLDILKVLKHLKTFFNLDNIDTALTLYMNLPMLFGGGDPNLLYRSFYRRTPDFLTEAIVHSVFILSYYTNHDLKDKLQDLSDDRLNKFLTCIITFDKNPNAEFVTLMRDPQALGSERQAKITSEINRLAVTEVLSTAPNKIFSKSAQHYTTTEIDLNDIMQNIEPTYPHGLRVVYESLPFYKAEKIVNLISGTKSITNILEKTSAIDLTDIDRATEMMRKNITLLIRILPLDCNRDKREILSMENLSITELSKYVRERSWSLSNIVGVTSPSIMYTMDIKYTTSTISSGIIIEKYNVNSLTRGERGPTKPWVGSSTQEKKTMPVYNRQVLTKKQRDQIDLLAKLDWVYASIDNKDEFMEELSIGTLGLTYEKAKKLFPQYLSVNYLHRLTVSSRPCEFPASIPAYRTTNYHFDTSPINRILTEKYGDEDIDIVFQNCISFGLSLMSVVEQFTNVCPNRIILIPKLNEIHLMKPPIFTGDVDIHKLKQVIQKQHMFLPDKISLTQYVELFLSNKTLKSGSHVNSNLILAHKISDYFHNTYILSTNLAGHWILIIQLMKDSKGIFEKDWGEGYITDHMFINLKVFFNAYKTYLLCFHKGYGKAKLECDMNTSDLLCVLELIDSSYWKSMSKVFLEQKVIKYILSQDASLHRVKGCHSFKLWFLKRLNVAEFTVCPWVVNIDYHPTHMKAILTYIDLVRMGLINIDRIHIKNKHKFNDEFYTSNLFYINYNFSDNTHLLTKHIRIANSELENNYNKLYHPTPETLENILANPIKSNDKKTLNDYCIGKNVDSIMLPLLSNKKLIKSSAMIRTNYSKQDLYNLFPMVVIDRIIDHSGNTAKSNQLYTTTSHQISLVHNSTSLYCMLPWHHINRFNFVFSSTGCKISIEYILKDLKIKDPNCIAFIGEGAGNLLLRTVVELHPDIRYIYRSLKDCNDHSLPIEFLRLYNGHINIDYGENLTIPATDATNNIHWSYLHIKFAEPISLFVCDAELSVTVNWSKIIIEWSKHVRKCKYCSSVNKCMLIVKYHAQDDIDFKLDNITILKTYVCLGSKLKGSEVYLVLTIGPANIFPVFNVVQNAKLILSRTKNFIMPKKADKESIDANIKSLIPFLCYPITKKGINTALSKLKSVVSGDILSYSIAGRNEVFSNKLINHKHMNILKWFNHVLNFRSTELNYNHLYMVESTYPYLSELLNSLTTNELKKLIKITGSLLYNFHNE
compound,measurement,value
Cc1ccc(-n2c(SCC(=O)N/N=C/c3c4ccccc4cc4ccccc34)nnc2-c2ccccc2)cc1 [GPAR-3710],activity of the viral RdRp complex,remained unaffected
